# Test results from paper PMC4336329 (PLoS ONE, 2015).
# Among all 310,000 compounds or so, about 2,200 (0.71%) showed an effect of 50% or more. Effects have a minus sign here. Some of the results follow.
# Target: human ether-à-go-go-related gene (hERG) potassium channel (human, UniProt Q12809)
# Test: primary screen, population patch clamp on CHO cells stably expressing hERG
# Chain of human ether-à-go-go-related gene (hERG) potassium channel (Q12809 whole entry, looked up): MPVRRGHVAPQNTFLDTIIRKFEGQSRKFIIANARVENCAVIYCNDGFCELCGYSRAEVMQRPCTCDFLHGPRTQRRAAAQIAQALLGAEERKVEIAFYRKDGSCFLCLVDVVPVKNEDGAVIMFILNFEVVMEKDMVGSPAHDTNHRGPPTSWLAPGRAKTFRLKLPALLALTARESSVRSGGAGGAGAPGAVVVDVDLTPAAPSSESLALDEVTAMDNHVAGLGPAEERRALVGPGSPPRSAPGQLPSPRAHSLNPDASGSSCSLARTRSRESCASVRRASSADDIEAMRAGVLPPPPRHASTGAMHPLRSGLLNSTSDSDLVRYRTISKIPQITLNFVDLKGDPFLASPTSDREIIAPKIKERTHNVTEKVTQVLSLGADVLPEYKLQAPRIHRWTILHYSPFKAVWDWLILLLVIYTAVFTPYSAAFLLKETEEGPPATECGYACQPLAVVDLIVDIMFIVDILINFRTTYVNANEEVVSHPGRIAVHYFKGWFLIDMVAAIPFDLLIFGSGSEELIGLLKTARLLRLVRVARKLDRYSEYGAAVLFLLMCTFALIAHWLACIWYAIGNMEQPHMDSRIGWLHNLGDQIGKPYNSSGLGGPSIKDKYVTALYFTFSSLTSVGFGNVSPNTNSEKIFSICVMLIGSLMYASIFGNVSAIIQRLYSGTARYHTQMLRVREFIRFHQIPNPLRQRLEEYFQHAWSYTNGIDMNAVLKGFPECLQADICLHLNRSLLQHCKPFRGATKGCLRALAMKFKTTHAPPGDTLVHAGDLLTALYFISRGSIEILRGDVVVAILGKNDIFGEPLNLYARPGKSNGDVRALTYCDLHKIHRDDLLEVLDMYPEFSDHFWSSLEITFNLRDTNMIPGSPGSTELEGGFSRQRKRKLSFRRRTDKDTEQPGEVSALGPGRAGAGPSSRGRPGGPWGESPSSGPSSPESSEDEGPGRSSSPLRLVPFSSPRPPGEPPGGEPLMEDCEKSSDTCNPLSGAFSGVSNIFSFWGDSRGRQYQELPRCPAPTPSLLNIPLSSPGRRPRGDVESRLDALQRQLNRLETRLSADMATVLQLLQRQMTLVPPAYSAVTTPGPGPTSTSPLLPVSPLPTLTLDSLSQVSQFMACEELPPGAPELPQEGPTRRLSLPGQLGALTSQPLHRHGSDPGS
row,Structure (SMILES),"hERG current change (%, negative = inhibition) at 1uM [%]"
1,c1ccc2c(c1)SCc1nnc(-c3ccncc3)n1-2,10
2,COCCNC(=O)C1CC(c2cccc(F)c2)=NO1 (stereo not shown),2.5
3,COc1ccc(/C=C/c2nnc(NC(=O)CSc3ccc(C)cc3)s2)cc1,16.7
4,CC1CCN(C(=O)COC(=O)CNC(=O)C23CC4CC(CC(C4)C2)C3)CC1,4.31
5,CC1CCCN(C(=O)Cn2c(=O)oc3ccccc32)C1 (stereo not shown),7.25
6,CC1CN(C(=O)c2cc(Br)c(Br)s2)CC(C)O1 (stereo not shown),6.69
7,Cc1nn(Cc2ccccc2)c(C)c1NC(=O)Cn1nc([N+](=O)[O-])c(Cl)c1C,6.51
8,Cl.N=C(N)SCc1ccccn1,3.39
9,COC(CN(C(=O)CCl)C(C(=O)NC1CCCCC1)c1ccc(Cl)cc1)OC (stereo not shown),11.2
10,COC(=O)c1ccc(NCCC(=O)O)cc1,2.12
11,COc1ccc(CCOC(=O)c2cccc(NC(C)=O)c2)cc1,9.17
12,N#CC(C#N)=C(Nc1ccc(F)cc1)SCc1cccc(Br)c1,10.6
13,Cc1cc(C)c(Nc2ncnc(N)n2)c(C)c1,8.3
14,Cc1cc(Br)c2[nH]c3c(c2c1)CCCC3=O,3.53
15,COC(=O)c1sc(S(=O)(=O)N2CC(C)OC(C)C2)c(C(=O)OC)c1C (stereo not shown),11
16,COc1cccc(/C=N/NC(=O)C(=O)NCc2ccco2)c1OC,11.6
17,O=C(N/N=C\c1ccncc1)c1ccc(Br)s1,16.4
18,Cc1cccc(C)c1OCc1cc(C(=O)NC2CCC2)no1,14.3
19,COc1ccc(-c2nn(C)c(=O)c3ccccc23)cc1NC(=O)COc1ccc(C)cc1,1.89
20,O=C(NCSc1ccccc1)c1ccccc1,9.21
21,CC(=O)NN1C(=O)c2ccccc2NC1c1ccccn1 (stereo not shown),15.9
22,COc1ccc(C(=O)NCc2nnc(SCC(=O)N3CCCC3)o2)cc1,13.2
23,O=[N+]([O-])c1ccc(CCNc2cccc3ccccc23)c([N+](=O)[O-])c1,9.24

row,Structure (SMILES),"hERG current change (%, negative = inhibition) at 1uM [%]"
1,COc1cccc(NC(=S)NNC(=O)c2ccccc2OC(F)F)c1,7.66
2,COc1ccc(C)cc1NC(=O)CNC(=O)c1sc2ccccc2c1Cl,10.8
3,O=C(NCCc1ccc(Cl)cc1Cl)c1cc([N+](=O)[O-])c[nH]c1=O,19.2
4,Cc1nn(-c2ccccc2)c(C)c1C(=O)Nc1ccc(N2CCOCC2)cc1,9.67
5,Cl.Fc1ccc(C(OCCN2CCCC2)c2ccc(F)cc2)cc1,-37.9
6,COc1cc(C2C3=C(CCCC3=O)Nc3ccc4ncccc4c32)ccc1O (stereo not shown),9.67
7,COc1ccc(CNC(=O)c2c(O)c3ccccc3n(C)c2=O)cc1OC,6.33
8,CCCCCCC(=O)Nc1ccc(Cl)cn1,12.1
9,COc1ccc(S(=O)(=O)N2CCN(CC(=O)Nc3cc(OC)cc(OC)c3)CC2)cc1,0.704
10,NC(=O)C1CCN(C(=O)CC(c2ccccc2)c2ccccc2)CC1,11.2
11,COc1ccc(N(CC(=O)Nc2ccc(C)c(C)c2)S(=O)(=O)c2c(C)noc2C)cc1,10.3
12,COc1cc(/C=C2/SC(=S)N(Cc3ccccc3)C2=O)ccc1OS(C)(=O)=O,17.1
13,O=C(NCCC(=O)N1CCN(S(=O)(=O)c2ccc(F)cc2)CC1)Nc1ccccc1,5.45
14,Cc1ccc(/C=N/N(C)C2=NS(=O)(=O)c3ccccc32)cc1,8.77
15,Cc1ccc(C(=O)COC(=O)c2ccccc2NC(=O)c2ccccc2)cc1[N+](=O)[O-],7.83
16,O=C(CNC(=O)c1ccc(Br)cc1)N/N=C/c1cccnc1,4.68
17,C=CCc1c(C)[nH]c2c(OC)cccc2c1=S,9.29
18,CC(C)c1ccccc1NC(=O)COC(=O)Cc1ccsc1,13.4
19,CCN1C(=O)[C@@H]2[C@@H](c3ccc(-c4ccc(Cl)c(Cl)c4)cc3)N3CCCC[C@@]3(C(=O)OC)[C@@H]2C1=O.O=C(O)C(F)(F)F,13.4
20,O=C(CC1C(=O)NCCN1C(=O)Nc1ccccc1)Nc1cccc(C(F)(F)F)c1 (stereo not shown),2.28
21,CCN(CC)CCn1nc(C)nc1-c1ccccc1O,-0.78
22,NNC(=O)c1ccc(CN2CCCCC2)o1,5.28
23,CCOc1ccc(C2NC(=O)CCC2[N+](=O)[O-])cc1 (stereo not shown),26

row,Structure (SMILES),"hERG current change (%, negative = inhibition) at 1uM [%]"
1,COc1ccccc1-c1coc2cc(OC(=O)/C=C/c3ccccc3)ccc2c1=O,13.1
2,N#CCCn1cc(/C=N/NC(N)=S)c(-c2ccccc2)n1,15.2
3,CCN(CC)CCCC(C)NC(=O)c1ccc(C(F)(F)F)cc1.Cl (stereo not shown),-0.836
4,Cc1ccc2c(CC(=O)NC3CCS(=O)(=O)C3)coc2c1C (stereo not shown),11.5
5,CCOc1cccc(NC(=O)C2CCCN(S(=O)(=O)c3ccc(-n4cnnn4)cc3)C2)c1 (stereo not shown),8.53
6,O=C(Nc1ccccc1)Nc1ccccc1C(=O)NCc1ccco1,-5.58
7,Cc1c(C(=O)NCCCN2CCOCC2)oc2c1C1(CCC2)SCCS1,11.3
8,CCc1nc(Nc2ccccc2OC)c2oc3ccccc3c2n1.Cl,8.61
9,CCn1cc(C2=NC(C)(C)CO2)c2ccccc21,-1.15
10,CCOC(=O)C1=Nc2ccccc2C1=[N+]=[N-],2.9
11,Cc1ccccc1CSCCNC(=O)c1ccccc1,9.84
12,O=C(C(Cc1ccccc1)NS(=O)(=O)c1cccc2nsnc12)N1CCC2(CC1)OCCO2 (stereo not shown),7.3
13,CCCCS(=O)Cc1ccccc1 (stereo not shown),3.88
14,CC(C)(C)NC(=O)CN1CCC(O)(c2ccc3c(c2)OCO3)CC1,7.67
15,CCOc1ccc(C(=O)c2ccccc2C(=O)O)cc1OCC,4.57
16,Cc1nc2c(nnn2Cc2ccccc2)c(=O)n1-c1ccccc1,4.22
17,CCCC(C)NC(=O)CSc1nnc2ccccn12 (stereo not shown),6.4
18,COc1cccc(OCc2nnc(SCc3cc(=O)[nH]c4ccccc34)o2)c1,-9.9
19,O=C(c1ccc([N+](=O)[O-])cc1)N1CCSC1c1ccccc1Cl (stereo not shown),2.89
20,O=C(O)C(=O)O.O=C(c1ccccc1)c1ccc(OCCOCCN2CCN(Cc3ccccc3)CC2)cc1,-82.8
21,CCOc1ccc(Nc2nc3ccccc3n3cnnc23)cc1,9.19
22,CCN(CC)CCN(C(=O)c1ccc2ncsc2c1)c1nc2cc3c(cc2s1)OCO3.Cl,-20.5
23,CC1CCCC(C(=O)O)N1C(=O)CCSC(=O)c1ccccc1 (stereo not shown),6.24

row,Structure (SMILES),"hERG current change (%, negative = inhibition) at 1uM [%]"
1,COc1cc(N2CCOCC2)ccc1C=C1C(=O)NC(=O)NC1=O,15.4
2,CCOc1ccccc1NC(=O)CSc1nc(=O)n(CCCN2CCOCC2)c2c1CCCC2,7.97
3,COc1cccc(NC(=O)c2sc(NC(=O)c3ccncc3)nc2C)c1,9.78
4,O=C(CNC(=O)c1ccccc1Br)N/N=C/c1ccc(O)cc1,4.02
5,Cc1ccc(NS(=O)(=O)c2ccc(C(=O)N3CCCC(C(F)(F)F)C3)cc2)cc1 (stereo not shown),3.73
6,CC1CN(c2ccc([N+](=O)[O-])cc2Cl)CCN1.Cl (stereo not shown),-3.16
7,CN(Cc1ccccc1)C(=O)c1ccc(NC(=O)Cc2cccc(NC(=O)C3CCN(C(=O)C4CC4)CC3)c2)cc1,5.63
8,CCN(C1CCCCC1)S(=O)(=O)c1ccc(S(=O)(=O)NCCc2ccncc2)cc1,14.1
9,CCOC(=O)Cc1csc(N/N=C\c2ccccc2OC)n1,9.92
10,COC(=O)CSc1nc2ccc(NC(=O)c3ccccc3C(=O)N3CCOCC3)cc2s1,11.6
11,COc1ccc(OC(C)C(=O)Nc2cccnc2)cc1 (stereo not shown),9.01
12,O=C(COC(=O)/C=C/c1ccc(S(=O)(=O)N2CCc3ccccc32)cc1)NC1CCS(=O)(=O)C1 (stereo not shown),9.59
13,COc1ccc(-c2cccc(NS(=O)(=O)c3cc([N+](=O)[O-])ccc3Cl)c2)nn1,12.7
14,O=C(c1ccc(S(=O)(=O)Nc2ccccc2)cc1)N1CCC1,8.86
15,CCN(CC)c1nc2ccccc2n2cnnc12,-5.28
16,CSc1ncc(F)c(N(CCO)CCO)n1,9.71
17,Cc1cc2cc(CNC(=O)C3CC3)ccc2n1C,1.25
18,O=C(OCCOc1ccccc1)c1n[nH]c2ccccc12,8.16
19,CC1CCN(CCCNC(=O)c2cn(C)c3ccc(S(=O)(=O)N4CCCC4)cc3c2=O)CC1,10.7
20,CCC(CO)n1c(SCc2cc([N+](=O)[O-])cc3c2OCOC3)nc2ccccc2c1=O (stereo not shown),11
21,CCCCNC(=S)Nc1cc(S(=O)(=O)N2CCCCC2)ccc1C,9.26
22,CC(OC(=O)COc1ccccc1)C(=O)NC1CCCC1 (stereo not shown),11.7
